Assay results from the RNAGym collection of RNA variant scans (doi:10.7554/elife.90254).
The source gives no read counts; variants with many changes may rest on few reads.

B1: LINE1-full (parent)
chain: UACGUAGGUGGUUUUCCCCUGAUAGUGCUAAGGGGGCCUGGAAGUUUGGACUGGGCAGAGCUCAACACAGCGUGGCAAAGUGGCUGUGGCUAGACUGCCUCUCUGGAUUCCUCGUCACUCAGCAGGGCAUCUCUGAGAGAAAUGCC

Variants of: B1
Assay: self-cleavage, relative activity (ratio to wild type); higher = more cleavage; in vitro, sequencing; the parent is a self-cleaving ribozyme

| Variant | self-cleavage |
| --- | --- |
| U15C G36A C76U | 1.92 |
| U15C U46C A69G G125U | 0.85 |
| U15A A59G A79G A138G | 0.36 |
| U15C A136U A140G | 1.68 |
| U15C A65U U85C U96A | 0 |
| U14C U62C U87C | 0 |
| U15A U109C G127A | 0.58 |
| U14C U112C A124G | 1.27 |
| U15C U47C G74A U115A | 1.59 |
| U15C G21U G72A U102C U119C | 1.67 |
| U15C A57U G88A C116G A136U | 0.07 |
| U15C G48A A57C U102A A121U | 0.01 |
| U14G A30U A69G U73G U85A | 0.46 |
| U14C U130C U132A | 1.63 |
| U15C A92G A140G | 0.05 |
| U15C A31G U62C A79G A124U A138G | 0.24 |
| U15C A43G A141G | 2.09 |
| U15C G75U U87C U130C | 0.15 |
| U14C U46C A65G U102C | 0 |
| U14C U100C A124U | 1.46 |
| U15C U20C C116A A141G | 1.45 |
| U15C A77U U85C | 0.04 |
| U15C U26C A64C U109C | 0.36 |
| U15C U20A U96A C103U U109C A142G | 0.06 |

| Variant | self-cleavage |
| --- | --- |
| U15C U39A C56U A138G | 0.17 |
| U15C C98G C116U | 0.05 |
| U14C U96C U104C U119C C133A | 0 |
| U14C U62C A138G A142U | 0.07 |
| U15C G32A G34U A59G A121U | 0.08 |
| U15C U73A U102C U132C A141G | 1.49 |
| U15C U46A A50U | 0.76 |
| U14G U62A G135A A136U A141G | 0.11 |
| U15A C110U U130A | 1.08 |
| U15C U45C U143C | 0.71 |
| U15C A117U A129G | 2.76 |
| U14C U52A U100C A138G | 1.48 |
| U15C A124U A140G | 1.25 |
| U15C A77G U102C | 1.28 |
| U15C U20C U39C G126A | 1.21 |
| U14C U85A A107G | 0.04 |
| U14C U47A A141G | 0.64 |
| U14C U102C U143A | 1.78 |
| U15C A43G A50G | 1.38 |
| U15A A121G A142G | 1.52 |
| U15C C61U A65U A107U A141U | 0.06 |
| U14G U23C U85A U134C | 0 |
| U15C A24U U52A A121G | 1.4 |
| U15C C95U U112C A117U | 0.2 |

| Variant | self-cleavage |
| --- | --- |
| U15C A78G A142G | 1.01 |
| U14C U62G A69G U96G | 0 |
| U15A A69G A78G U85C | 0.77 |
| U15A U102A A136G | 0.69 |
| U15C G21A U112C | 1.22 |
| U15A G36A C71A | 0.16 |
| U15C A50G U102A | 1.59 |
| U14C U119A A136G | 1.49 |
| U15C A107U C111U | 1.53 |
| U15C U23C A30U G34A U62C G72C G122A | 0.04 |
| U15C U29C U112C | 0.2 |
| U15C A59G U62C U102C U104A U134C | 0 |
| U15A G54A U115C A124G | 0.32 |
| U14C U96A U119C | 0.16 |
| U15C A57C G97A | 0.03 |
| U14C U62C A117G | 0 |
| U15A A69G U73C A141G U143C | 0 |
| U15C U26C U112A A142U | 1.47 |
| U15C U47C U85C G125U | 0.57 |
| U15A U52A U96C | 0.16 |
| U14C U46G A77U | 1.09 |
| U15A A79G U96C | 0.33 |
| U14C U45C A64U A138U | 0.79 |
| U15C U46A U81A U96C | 0.12 |

| Variant | self-cleavage |
| --- | --- |
| U14G A22G A50G U130G | 1.15 |
| U15A A77G U119G A140U | 1.23 |
| U15C U26C A69U | 0.19 |
| U15C A57U G125A U130C | 0.29 |
| U15C A31G U96C U132A | 0 |
| U15C A30G U112C | 1.86 |
| U14C U115C U134C G144A | 1.5 |
| U15A A65C U87A | 0.17 |
| U14G A78G G93U | 0.11 |
| U15A U62C U73C G82A A94G A117G | 0 |
| U14G U46C U87A A136G | 0 |
| U14G G53A U81A U87C U119C | 0.43 |
| U14C U112C C120U | 1.77 |
| U15C A107G A142G | 2.04 |
| U15C A42U A141G | 1.4 |
| U15A A43G U104A A107C U108C C113U | 0 |
| U15C U23A A24G U46A C66U U109A | 0.15 |
| U15C A30G C90U | 0.31 |
| U15A U46A U143C | 0.62 |
| U15C U46A A64G U73C C123U A142G | 0.36 |
| U15A A31U G97C A142G | 0.17 |
| U15C G55A G88A | 0.04 |
| U15C U26C U112A | 1.76 |
| U15C A22U U115C | 0.94 |

| Variant | self-cleavage |
| --- | --- |
| U15A A22U U39C | 1.1 |
| U15A U26A U73G A136U A140G | 1.93 |
| U15A A129U G144A | 0.82 |
| U15A A22U A77G A94G U108C | 0 |
| U14C U87C U134C A138G | 0.26 |
| U15C A43G A64U U109C A121G A141G | 0.52 |
| U15C A64G U119A | 0.13 |
| U15C A42G U132C | 2.63 |
| U15C U26C G35U A59U A78U A129G | 1.08 |
| U15C U47C C51A | 1.27 |
| U14C U47G U115A U134A | 1.51 |
| U15C C71A U85C A117U | 0.1 |
| U14G U73A U91C | 0.21 |
| U15C A59G U91A | 0.09 |
| U15C A117G A136G | 1.55 |
| U14C U108C U115A U130C | 1.84 |
| U15C U20C U26C A57U U62A U73C A121U | 0 |
| U15A U20C A31G A121G A129U | 0 |
| U14C U45C A67U U87A U130C | 0.49 |
| U15C C76U U119C A141G | 2.78 |
| U15C A42G U62A | 0.16 |
| U15A A77G G82A | 2.25 |
| U15A G44A A50G A59G | 0.26 |
| U14C U115A A136G | 0.66 |

| Variant | self-cleavage |
| --- | --- |
| U15C U52A A77C G137U | 1.19 |
| U15C U46C U81C | 1.58 |
| U15A A30G A140G C145U | 1.12 |
| U15C A43U A65U U109A U130A A138G | 0.49 |
| U14G U29C A121U U132A | 1.72 |
| U14C U46C A57G A138G | 0 |
| U15C A107U A121G G125U | 1.67 |
| U15C C16U C19U | 0.75 |
| U14C U119C U143A | 1.91 |
| U15C C19A G54U A107G A138G A141G | 1.56 |
| U15C U47A A50G A92G C95A | 0.04 |
| U15C U29C A121G A141G | 0.54 |
| U15C A107G A138G | 1.69 |
| U15C A78G U96A A121G G127A | 0.06 |
| U14C U45C A64G G105A | 0.35 |
| U15A A129G U134G | 0 |
| U14C U73C A79G G126U | 1.23 |
| U15A A59G U73C A140C | 0 |
| U15C G32A U39A U87A U115A | 0.05 |
| U15C C28U C63U U73C A129G A138G | 0.17 |
| U15C U62A A79G A94U U104A | 0 |
| U15C A67G U134C | 0.73 |
| U15A A50U C71G A77G A107U A121U | 0.09 |
| U15A G60A C61U U104A U108C | 0.04 |

| Variant | self-cleavage |
| --- | --- |
| U15A A67U U112C A138U | 0.3 |
| U15C A124G A141G | 1.89 |
| U15C A57U A65G A77U A78U U143C | 0.14 |
| U14G A22C G105U U119C | 1.41 |
| U15C A78U U109C | 2.07 |
| U15C U47C U62C U143A | 0.53 |
| U15C G89A A138G | 0.07 |
| U15A U81A G135U | 1.17 |
| U14C U47A C133U A140G | 0.38 |
| U15C U23C A50G | 1.31 |
| U15A A64G A79G G82A | 0.08 |
| U14C U81G A107G | 1.47 |
| U15C U39C A129G | 1.87 |
| U15A U45C A57G A79G | 0 |
| U14C U91A U100C | 1.02 |
| U15C U52A A77G | 2.43 |
| U15C G34A U39C G54U | 1.19 |
| U15C A57G G83A | 0.57 |
| U15C C37G A129G | 1.31 |
| U14C U132C A138U | 0.62 |
| U15C U62A U115C | 0 |
| U15C U23C A67U U96A | 0.06 |
| U15A A50G U52C A65G C71U C118U | 0.11 |
